According to the supplement of paper PMC4996465:
Viability of KB3-1 and Nalm-6 cells after 48 h of drug alone (CellTiter-Glo), 11 doses over about 4.5 log units. % of DMSO wells, lower = more cell loss; AC50 from the fitted curve, lower = more potent. No active / inactive call. Nalm-6 was screened in two runs. AC50 is listed only for well-fitted inhibitory curves. KB3-1 is a HeLa-derived carcinoma line, Nalm-6 a B-cell precursor leukaemia line.

What was measured:
KB3-1 [1] = test: log AC50 of viability decrease (48 h) (log10 M); higher = less potent
Description: (§1)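 Eleven-dose screen of the NCATS MIPE 3 library on cells without co-treatment; CellTiter-Glo after 48 h. AC50 from the curve fit; only inhibitory curves of the better fit classes are listed.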

Nalm-6 [2] = test: as above
Description: as §1

KB3-1 [3] = test: viability (% of DMSO control); higher = more viable cells
Description: (§2)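 Eleven-dose screen of the NCATS MIPE 3 library on cells without co-treatment; CellTiter-Glo after 48 h, as % of DMSO wells.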

Nalm-6 [4] = test: as above
Description: as §2

| SMILES | log AC50 of viability decrease (KB3-1 [1]) | log AC50 of viability decrease (Nalm-6 [2]; run: 1) | log AC50 of viability decrease (Nalm-6 [2]; run: 2) | viability (KB3-1 [3]; 0.00078 µM) [%] | viability (KB3-1 [3]; 0.00234 µM) [%] | viability (KB3-1 [3]; 0.00702 µM) [%] | viability (KB3-1 [3]; 0.0211 µM) [%] | viability (KB3-1 [3]; 0.0632 µM) [%] | viability (KB3-1 [3]; 0.19 µM) [%] | viability (KB3-1 [3]; 0.569 µM) [%] | viability (KB3-1 [3]; 1.71 µM) [%] | viability (KB3-1 [3]; 5.12 µM) [%] | viability (KB3-1 [3]; 15.4 µM) [%] | viability (KB3-1 [3]; 46.1 µM) [%] | viability (Nalm-6 [4]; run: 1, 0.00078 µM) [%] | viability (Nalm-6 [4]; run: 1, 0.00234 µM) [%] | viability (Nalm-6 [4]; run: 1, 0.00702 µM) [%] | viability (Nalm-6 [4]; run: 1, 0.0211 µM) [%] | viability (Nalm-6 [4]; run: 1, 0.0632 µM) [%] | viability (Nalm-6 [4]; run: 1, 0.19 µM) [%] | viability (Nalm-6 [4]; run: 1, 0.569 µM) [%] | viability (Nalm-6 [4]; run: 1, 1.71 µM) [%] | viability (Nalm-6 [4]; run: 1, 5.12 µM) [%] | viability (Nalm-6 [4]; run: 1, 15.4 µM) [%] | viability (Nalm-6 [4]; run: 1, 46.1 µM) [%] | viability (Nalm-6 [4]; run: 2, 0.00078 µM) [%] | viability (Nalm-6 [4]; run: 2, 0.00234 µM) [%] | viability (Nalm-6 [4]; run: 2, 0.00702 µM) [%] | viability (Nalm-6 [4]; run: 2, 0.0211 µM) [%] | viability (Nalm-6 [4]; run: 2, 0.0632 µM) [%] | viability (Nalm-6 [4]; run: 2, 0.19 µM) [%] | viability (Nalm-6 [4]; run: 2, 0.569 µM) [%] | viability (Nalm-6 [4]; run: 2, 1.71 µM) [%] | viability (Nalm-6 [4]; run: 2, 5.12 µM) [%] | viability (Nalm-6 [4]; run: 2, 15.4 µM) [%] | viability (Nalm-6 [4]; run: 2, 46.1 µM) [%] |
| --- | --- | --- | --- | --- | --- | --- | --- | --- | --- | --- | --- | --- | --- | --- | --- | --- | --- | --- | --- | --- | --- | --- | --- | --- | --- | --- | --- | --- | --- | --- | --- | --- | --- | --- | --- | --- |
| O=C(O)c1ccc2c(c1)nc(Nc1cccc(Cl)c1)c1ccncc12 [Silmitasertib] | -4.93 | -5.53 | -5.28 | 88.6 | 97 | 93.2 | 96.5 | 93.4 | 90.7 | 83.6 | 68 | 52.1 | 40.3 | 5.04 | 79.9 | 93 | 94.1 | 89.2 | 82.9 | 74.6 | 63.3 | 48.9 | 31 | 9.21 | 0.18 | 97.7 | 93.7 | 96.1 | 102 | 91.8 | 89.3 | 70.1 | 59.6 | 43.5 | 6.25 | -0.123 |
| Cc1ccc(S(=O)(=O)Nc2cc(Cl)ccc2C(=O)Nc2nc(-c3ccccc3)cs2)cc1 | -5.68 | -5.38 | -5.23 | 98.7 | 98.7 | 99.2 | 99.5 | 100 | 99 | 91 | 65.2 | 44.7 | 29.7 | 30.2 | 116 | 114 | 122 | 120 | 107 | 114 | 109 | 86.9 | 48.9 | 8.22 | 3.92 | 107 | 104 | 112 | 110 | 100 | 104 | 92.4 | 88 | 59.6 | 7.49 | 2.56 |
| Cc1nc(Nc2ncc(C(=O)Nc3c(C)cccc3Cl)s2)cc(N2CCN(CCO)CC2)n1 [Dasatinib] | -4.68 | -5.83 | -5.23 | 103 | 104 | 106 | 104 | 107 | 107 | 106 | 103 | 99.1 | 93.2 | 55.6 | 117 | 129 | 119 | 103 | 98 | 86.8 | 67.4 | 62.7 | 50 | 40.6 | 12.3 | 106 | 107 | 105 | 95.2 | 87.5 | 81.1 | 68.6 | 61.2 | 56.9 | 52 | 6.35 |
